Structures can show the parent of a compound that is named as a salt. ± gives the standard error. Among all 1,300 compounds or so, about 130 (10%) showed an effect of 50% or more. This is a selection; strong and weak results do not stand in their true shares.
System: Trichoderma virens ATCC 9645
Experiment: growth yield (OD600) with compound + IPBC relative to untreated control; higher = less growth inhibition
Conditions: compound concentration: 100 uM, IPBC concentration: 200 ng/ml
How it was run: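 Library compounds (100 μM final), with or without a co-applied biocide (200 ng ml^−1), were added to 100 μl aliquots of Trichoderma virens ATCC 9645 spores at 15,000 spores ml^−1 in potato dextrose broth. Cultures were grown at 30 °C in 96-well plates, and OD600 was measured at 40 h and 72 h. Each growth value is a mean of duplicate screens, expressed relative to the control with neither agent.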

SMILES: O=C(O)Cc1ccccc1Nc1c(Cl)cccc1Cl [Diclofenac sodium] + CCCCNC(=O)OCC#CI [3-iodo-2-propynyl butylcarbamate (IPBC)]
- growth yield (40 h): 44.79 ± 0.32%

SMILES: CN1CCN(CCCN2c3ccccc3Sc3ccc(S(=O)(=O)N(C)C)cc32)CC1 [Thioproperazine dimesylate] + CCCCNC(=O)OCC#CI [3-iodo-2-propynyl butylcarbamate (IPBC)]
- growth yield (40 h): 37.8 ± 0.95%

SMILES: CC(=O)Oc1cc(C(F)(F)F)ccc1C(=O)O [Triflusal] + CCCCNC(=O)OCC#CI [3-iodo-2-propynyl butylcarbamate (IPBC)]
- growth yield (40 h): 72.9 ± 2.4%
- growth yield (72 h): 87 ± 2.1%

SMILES: CCN(C(C)=O)c1cccc(-c2ccnc3c(C#N)cnn23)c1 [Zaleplon] + CCCCNC(=O)OCC#CI [3-iodo-2-propynyl butylcarbamate (IPBC)]
- growth yield (40 h): 81.009 ± 1e-14%
- growth yield (72 h): 88.94 ± 0.42%

SMILES: NCCc1c[nH]c2ccc(O)cc12 [Serotonin hydrochloride] + CCCCNC(=O)OCC#CI [3-iodo-2-propynyl butylcarbamate (IPBC)]
- growth yield (40 h): 100 ± 8.1%
- growth yield (72 h): 100 ± 3.6%

SMILES: O=c1[nH]cc(F)c(=O)[nH]1 [5-fluorouracil] + CCCCNC(=O)OCC#CI [3-iodo-2-propynyl butylcarbamate (IPBC)]
- growth yield (40 h): 36.9%

SMILES: CS(=O)(=O)c1ccc([C@@H](O)[C@@H](CO)NC(=O)C(Cl)Cl)cc1 [Thiamphenicol] + CCCCNC(=O)OCC#CI [3-iodo-2-propynyl butylcarbamate (IPBC)]
- growth yield (40 h): 89.11 ± 0.16%
- growth yield (72 h): 93.03 ± 0.52%

SMILES: CCC(COC(=O)c1cc(OC)c(OC)c(OC)c1)(c1ccccc1)N(C)C (stereo unspecified) [Trimebutine] + CCCCNC(=O)OCC#CI [3-iodo-2-propynyl butylcarbamate (IPBC)]
- growth yield (40 h): 84 ± 4%
- growth yield (72 h): 87.3 ± 2.3%

SMILES: O=C1C(CC[S+]([O-])c2ccccc2)C(=O)N(c2ccccc2)N1c1ccccc1 (stereo unspecified) [Sulfinpyrazone] + CCCCNC(=O)OCC#CI [3-iodo-2-propynyl butylcarbamate (IPBC)]
- growth yield (40 h): 106 ± 9.2%
- growth yield (72 h): 105 ± 2.4%

SMILES: CC(=O)O[C@]1(C(C)=O)CC[C@H]2[C@@H]3C=C(C)C4=CC(=O)CC[C@@H]4[C@H]3CC[C@@]21C [Nomegestrol acetate] + CCCCNC(=O)OCC#CI [3-iodo-2-propynyl butylcarbamate (IPBC)]
- growth yield (40 h): 75.77 ± 0.48%
- growth yield (72 h): 88.1 ± 5.5%

SMILES: C#C[C@]1(O)CC[C@H]2[C@@H]3CCC4=CC(=O)CC[C@@H]4[C@H]3CC[C@@]21C [Norethindrone] + CCCCNC(=O)OCC#CI [3-iodo-2-propynyl butylcarbamate (IPBC)]
- growth yield (40 h): 55.1 ± 1.4%
- growth yield (72 h): 83.06 ± 0.63%

SMILES: Nc1ccc(S(=O)(=O)Nc2ncccn2)cc1 [Sulfadiazine] + CCCCNC(=O)OCC#CI [3-iodo-2-propynyl butylcarbamate (IPBC)]
- growth yield (40 h): 85.5 ± 2.5%
- growth yield (72 h): 92.7 ± 4.2%

SMILES: CCN(CC)CCOC(=O)C1(c2ccc([N+](=O)[O-])cc2)CCCC1 [Nitrocaramiphen hydrochloride] + CCCCNC(=O)OCC#CI [3-iodo-2-propynyl butylcarbamate (IPBC)]
- growth yield (40 h): 94.4 ± 11%
- growth yield (72 h): 101 ± 5.1%

SMILES: Clc1ccccc1CN1CCc2sccc2C1 [Ticlopidine hydrochloride] + CCCCNC(=O)OCC#CI [3-iodo-2-propynyl butylcarbamate (IPBC)]
- growth yield (40 h): 87.5 ± 2.4%
- growth yield (72 h): 92.7 ± 2.5%

SMILES: Nc1ccc(O)c(C(=O)O)c1 [Mesalamine] + CCCCNC(=O)OCC#CI [3-iodo-2-propynyl butylcarbamate (IPBC)]
- growth yield (40 h): 86.4%
- growth yield (72 h): 89.14 ± 0.84%

SMILES: Cc1cc(NC(=O)C2=C(O)c3ccccc3S(=O)(=O)N2C)no1 [Isoxicam] + CCCCNC(=O)OCC#CI [3-iodo-2-propynyl butylcarbamate (IPBC)]
- growth yield (40 h): 72.6 ± 3%
- growth yield (72 h): 86.7 ± 1.4%

SMILES: Cc1cc(C(C)(C)CC(C)(C)C)ccc1OCCOCC[N+](C)(C)Cc1ccccc1 [Methyl benzethonium chloride] + CCCCNC(=O)OCC#CI [3-iodo-2-propynyl butylcarbamate (IPBC)]
- growth yield (40 h): 2.86 ± 0.64%
- growth yield (72 h): 2.62 ± 0.1%

SMILES: CO[C@@]1(NC(=O)C2SC(=C(C(N)=O)C(=O)O)S2)C(=O)N2C(C(=O)O)=C(CSc3nnnn3C)CS[C@@H]21 (stereo partly specified) [Cefotetan] + CCCCNC(=O)OCC#CI [3-iodo-2-propynyl butylcarbamate (IPBC)]
- growth yield (40 h): 94.8 ± 2.4%
- growth yield (72 h): 96.5 ± 1.9%

SMILES: COC(=O)C1=C(C)NC(C)=C(C(=O)OC)C1c1ccccc1[N+](=O)[O-] [Nifedipine] + CCCCNC(=O)OCC#CI [3-iodo-2-propynyl butylcarbamate (IPBC)]
- growth yield (40 h): 42.41 ± 0.16%

SMILES: Cc1scc2c1N(C(=O)CN1CCN(C)CC1)c1ccccc1NC2=O [Telenzepine dihydrochloride] + CCCCNC(=O)OCC#CI [3-iodo-2-propynyl butylcarbamate (IPBC)]
- growth yield (40 h): 91.2 ± 15%
- growth yield (72 h): 98.7 ± 11%

SMILES: Cn1c(=O)c2nc[nH]c2n(C)c1=O [Theophylline monohydrate] + CCCCNC(=O)OCC#CI [3-iodo-2-propynyl butylcarbamate (IPBC)]
- growth yield (40 h): 101 ± 4.5%
- growth yield (72 h): 99.3 ± 2.2%

SMILES: c1ccc(C2CN3CCSC3=N2)cc1 (stereo unspecified) [Tetramisole hydrochloride] + CCCCNC(=O)OCC#CI [3-iodo-2-propynyl butylcarbamate (IPBC)]
- growth yield (40 h): 87.8 ± 9.1%
- growth yield (72 h): 93.1 ± 4.8%

SMILES: COc1ccc(Cc2nccc3cc(OC)c(OC)cc23)cc1OC [Papaverine hydrochloride] + CCCCNC(=O)OCC#CI [3-iodo-2-propynyl butylcarbamate (IPBC)]
- growth yield (40 h): 80.8 ± 1.1%
- growth yield (72 h): 89.2 ± 1.6%

SMILES: CCOC(=O)c1ccc(OC(=O)CCCCCNC(=N)N)cc1 [Gabexate mesilate] + CCCCNC(=O)OCC#CI [3-iodo-2-propynyl butylcarbamate (IPBC)]
- growth yield (40 h): 51.3 ± 3%
- growth yield (72 h): 67.6 ± 1.4%

SMILES: CCCN[C@H]1CCc2nc(N)sc2C1 [Pramipexole dihydrochloride] + CCCCNC(=O)OCC#CI [3-iodo-2-propynyl butylcarbamate (IPBC)]
- growth yield (40 h): 116 ± 5.1%
- growth yield (72 h): 111 ± 3.4%

SMILES: Cc1cc(=O)oc2cc(O)ccc12 [Hymecromone] + CCCCNC(=O)OCC#CI [3-iodo-2-propynyl butylcarbamate (IPBC)]
- growth yield (40 h): 91.7 ± 3%
- growth yield (72 h): 92.5 ± 3.8%

SMILES: CCC1(CC)C(=O)C=CNC1=O [Pyrithyldione] + CCCCNC(=O)OCC#CI [3-iodo-2-propynyl butylcarbamate (IPBC)]
- growth yield (40 h): 103 ± 15%
- growth yield (72 h): 101 ± 10%

SMILES: CC(COc1ccccc1)N(CCCl)Cc1ccccc1 (stereo unspecified) [Phenoxybenzamine hydrochloride] + CCCCNC(=O)OCC#CI [3-iodo-2-propynyl butylcarbamate (IPBC)]
- growth yield (40 h): 101 ± 5.4%
- growth yield (72 h): 102 ± 2.4%

SMILES: COc1ccc(CN(CCN(C)C)c2ccccn2)cc1 [Pyrilamine maleate] + CCCCNC(=O)OCC#CI [3-iodo-2-propynyl butylcarbamate (IPBC)]
- growth yield (40 h): 82.8 ± 4.6%
- growth yield (72 h): 92.4 ± 4.9%

SMILES: CCCNC(C)C(=O)Nc1ccccc1C (stereo unspecified) [Prilocaine hydrochloride] + CCCCNC(=O)OCC#CI [3-iodo-2-propynyl butylcarbamate (IPBC)]
- growth yield (40 h): 86.4%
- growth yield (72 h): 95.54 ± 0.52%

SMILES: CC(=O)c1ccc(S(=O)(=O)NC(=O)NC2CCCCC2)cc1 [Acetohexamide] + CCCCNC(=O)OCC#CI [3-iodo-2-propynyl butylcarbamate (IPBC)]
- growth yield (40 h): 86.2 ± 1.1%
- growth yield (72 h): 91.56 ± 0.52%

SMILES: CCOC(=O)OC(C)OC(=O)[C@@H]1N2C(=O)[C@@H](NC(=O)[C@H](N)c3ccccc3)[C@H]2SC1(C)C (stereo partly specified) [Bacampicillin hydrochloride] + CCCCNC(=O)OCC#CI [3-iodo-2-propynyl butylcarbamate (IPBC)]
- growth yield (40 h): 89.1 ± 7.5%
- growth yield (72 h): 92.3 ± 3.8%

SMILES: CCOC(=O)[C@H](CCc1ccccc1)N[C@H]1CCc2ccccc2N(CC(=O)O)C1=O [Benazepril hydrochloride] + CCCCNC(=O)OCC#CI [3-iodo-2-propynyl butylcarbamate (IPBC)]
- growth yield (40 h): 84.98 ± 0.79%
- growth yield (72 h): 90.4 ± 1.3%

SMILES: COC1=C(OC)C(=O)C(CCCCCCCCCCO)=C(C)C1=O [Idebenone] + CCCCNC(=O)OCC#CI [3-iodo-2-propynyl butylcarbamate (IPBC)]
- growth yield (40 h): 49.1 ± 8.1%

SMILES: NCCCC[C@H](N[C@@H](CCc1ccccc1)C(=O)O)C(=O)N1CCC[C@H]1C(=O)O [Lisinopril] + CCCCNC(=O)OCC#CI [3-iodo-2-propynyl butylcarbamate (IPBC)]
- growth yield (40 h): 91.7 ± 5.9%
- growth yield (72 h): 97.7 ± 4.4%

SMILES: CC(C)(C)NC[C@H](O)COc1nsnc1N1CCOCC1 [Timolol maleate salt] + CCCCNC(=O)OCC#CI [3-iodo-2-propynyl butylcarbamate (IPBC)]
- growth yield (40 h): 88 ± 2.5%
- growth yield (72 h): 93.13 ± 0.63%

SMILES: O=C(Nc1cccc2c(=O)cc(-c3nnn[nH]3)oc12)c1ccc(OCCCCc2ccccc2)cc1 [Pranlukast] + CCCCNC(=O)OCC#CI [3-iodo-2-propynyl butylcarbamate (IPBC)]
- growth yield (40 h): 95.6 ± 7.6%
- growth yield (72 h): 95.3 ± 5.1%

SMILES: O=C1CN2Cc3c(ccc(Cl)c3Cl)N=C2N1 [Anagrelide] + CCCCNC(=O)OCC#CI [3-iodo-2-propynyl butylcarbamate (IPBC)]
- growth yield (40 h): 95.8 ± 5.6%
- growth yield (72 h): 93.5 ± 4.4%

SMILES: CC(C)NCC(O)COc1ccc(COCCOC(C)C)cc1 (stereo unspecified) [Bisoprolol fumarate] + CCCCNC(=O)OCC#CI [3-iodo-2-propynyl butylcarbamate (IPBC)]
- growth yield (40 h): 91.81 ± 0.32%
- growth yield (72 h): 93.97 ± 0.84%

SMILES: Nc1nc(=S)c2ncn([C@@H]3O[C@H](CO)[C@@H](O)[C@H]3O)c2[nH]1 [Thioguanosine] + CCCCNC(=O)OCC#CI [3-iodo-2-propynyl butylcarbamate (IPBC)]
- growth yield (40 h): 46.1 ± 0.64%
- growth yield (72 h): 88.3 ± 2.3%

SMILES: Fc1ccc(C(OCCN2CCN(CCCc3ccccc3)CC2)c2ccc(F)cc2)cc1 + CCCCNC(=O)OCC#CI [3-iodo-2-propynyl butylcarbamate (IPBC)]
- growth yield (40 h): 13.3 ± 4.8%

Reference: the supplement of paper PMC8007513
